{"source": "paper PMC4336329", "about": "(PLoS ONE, 2015)", "note": "The campaign covered roughly 310,000 compounds. About 2,200 (0.71%) showed an effect of 50% or more. The effect is printed as a negative number. The list shows a part of the results.", "data": [{"molecular_target": "human ether-à-go-go-related gene (hERG) potassium channel (human, UniProt Q12809)", "sequence (Q12809 whole entry, looked up)": "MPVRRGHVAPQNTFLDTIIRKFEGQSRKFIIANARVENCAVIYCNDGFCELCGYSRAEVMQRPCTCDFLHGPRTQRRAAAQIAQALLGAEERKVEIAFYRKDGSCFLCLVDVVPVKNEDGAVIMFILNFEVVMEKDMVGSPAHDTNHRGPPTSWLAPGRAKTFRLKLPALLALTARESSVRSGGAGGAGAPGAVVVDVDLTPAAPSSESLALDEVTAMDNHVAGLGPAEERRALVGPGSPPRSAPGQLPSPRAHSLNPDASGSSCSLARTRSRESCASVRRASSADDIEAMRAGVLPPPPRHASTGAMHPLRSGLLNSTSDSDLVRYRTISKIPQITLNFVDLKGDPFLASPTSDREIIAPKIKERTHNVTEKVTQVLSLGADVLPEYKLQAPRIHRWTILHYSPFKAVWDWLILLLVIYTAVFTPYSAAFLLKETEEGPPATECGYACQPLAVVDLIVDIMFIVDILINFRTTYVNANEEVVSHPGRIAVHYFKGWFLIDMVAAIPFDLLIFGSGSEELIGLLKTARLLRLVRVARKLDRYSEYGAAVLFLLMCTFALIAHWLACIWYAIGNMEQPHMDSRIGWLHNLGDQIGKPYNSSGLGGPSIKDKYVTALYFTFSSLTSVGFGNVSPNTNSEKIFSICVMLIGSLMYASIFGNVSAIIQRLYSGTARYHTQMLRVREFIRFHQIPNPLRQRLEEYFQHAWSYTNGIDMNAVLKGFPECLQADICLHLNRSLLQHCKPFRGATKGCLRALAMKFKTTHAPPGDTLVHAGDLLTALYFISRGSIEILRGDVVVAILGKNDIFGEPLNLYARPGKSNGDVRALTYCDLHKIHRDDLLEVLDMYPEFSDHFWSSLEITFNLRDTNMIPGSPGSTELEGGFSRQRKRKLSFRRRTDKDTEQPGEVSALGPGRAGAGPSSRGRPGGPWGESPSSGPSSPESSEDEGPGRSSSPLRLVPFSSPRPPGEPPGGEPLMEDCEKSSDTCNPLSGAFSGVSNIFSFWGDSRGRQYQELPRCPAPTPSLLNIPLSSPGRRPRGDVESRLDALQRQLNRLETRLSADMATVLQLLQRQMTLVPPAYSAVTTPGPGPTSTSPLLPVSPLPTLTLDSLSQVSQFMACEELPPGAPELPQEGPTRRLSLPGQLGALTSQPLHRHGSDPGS", "assay": "primary screen, population patch clamp on CHO cells stably expressing hERG", "units": {"hERG current change (%, negative = inhibition) at 1uM": "%"}, "values": [{"compound": "NC(=O)C1CCN(C(=O)COc2ccc3ccc(=O)oc3c2)CC1", "hERG current change (%, negative = inhibition) at 1uM": 11.9}, {"compound": "COCCCn1c(=N)c(C(=O)NCc2ccc3c(c2)OCO3)cc2c(=O)n3ccccc3nc21", "hERG current change (%, negative = inhibition) at 1uM": -87.4}, {"compound": "Cc1ccc(-c2noc(CCC(=O)NCCN3CCOCC3)n2)cc1", "hERG current change (%, negative = inhibition) at 1uM": 3.09}, {"compound": "COC(=O)c1sccc1NC(=O)c1c(C)cc(=O)oc1C", "hERG current change (%, negative = inhibition) at 1uM": -1.68}, {"compound": "FC(F)(F)c1ccc(Cl)c(NC2=NCCCCC2)c1", "hERG current change (%, negative = inhibition) at 1uM": 16.7}, {"compound": "COc1ccc(CCNC(=O)CSCc2ccc(Br)cc2)cc1OC", "hERG current change (%, negative = inhibition) at 1uM": 12.6}, {"compound": "CCOc1ccc(NC(=O)c2ccc(F)c(S(=O)(=O)N3CCN(c4ccccn4)CC3)c2)cc1", "hERG current change (%, negative = inhibition) at 1uM": 11.2}, {"compound": "COC(=O)C1=CN(C(C)c2ccccc2)C=C(C(=O)OC)C1c1cc(OC)c(OC)c(OC)c1", "note": "(centres unmarked)", "hERG current change (%, negative = inhibition) at 1uM": 5.47}, {"compound": "O=C(Nc1cccnc1)c1ccco1", "hERG current change (%, negative = inhibition) at 1uM": 12.5}, {"compound": "CCOC(=O)c1c(NC(=O)CC2SC(N)=NC2=O)sc2c1CCCC2", "note": "(centres unmarked)", "hERG current change (%, negative = inhibition) at 1uM": -5.26}, {"compound": "CC(Sc1ccsc1[N+](=O)[O-])C(=O)N1CCN(c2ccccn2)CC1", "note": "(centres unmarked)", "hERG current change (%, negative = inhibition) at 1uM": 9.12}, {"compound": "C=CCN(c1ccccc1)S(=O)(=O)c1cccc(C(=O)NNC(=O)c2ccccc2O)c1", "hERG current change (%, negative = inhibition) at 1uM": 0.358}, {"compound": "COC(=O)CNC(=O)c1sc2ncn(CC(=O)Nc3ccc(C)c(Cl)c3)c(=O)c2c1C", "hERG current change (%, negative = inhibition) at 1uM": 13.1}, {"compound": "COc1ccc(NS(=O)(=O)N2CCOCC2)cc1", "hERG current change (%, negative = inhibition) at 1uM": 10.8}, {"compound": "NNC(=O)CC12CC3CC(C1)CC(n1ncnn1)(C3)C2", "hERG current change (%, negative = inhibition) at 1uM": 9.41}, {"compound": "CCOC(=O)c1[nH]c2ccc(F)cc2c1NC(=O)CCN1CCOCC1", "hERG current change (%, negative = inhibition) at 1uM": 14.9}, {"compound": "CCN(Cc1nc(-c2ccc(OC)c(OC)c2)no1)C(=O)c1ccc2c(c1)OCO2", "hERG current change (%, negative = inhibition) at 1uM": 15.3}, {"compound": "COc1ccc(N2CCN(CC(=O)Nc3ccc(-n4cnnn4)cc3)CC2)cc1", "hERG current change (%, negative = inhibition) at 1uM": 12.7}, {"compound": "O=C(NNC(=O)c1cc2ccccc2cc1O)c1cccs1", "hERG current change (%, negative = inhibition) at 1uM": 11.9}, {"compound": "Cc1ccccc1OCCNc1ccc(C(F)(F)F)cc1[N+](=O)[O-]", "hERG current change (%, negative = inhibition) at 1uM": 11.6}, {"compound": "O=S(=O)(Nc1cc(S(=O)(=O)N2CCOCC2)ccc1NCC1CCCO1)c1ccc(F)cc1", "note": "(centres unmarked)", "hERG current change (%, negative = inhibition) at 1uM": 6.07}, {"compound": "O=c1c2ccccc2nc2n1C(CSCc1ccc(Cl)cc1Cl)CS2", "note": "(centres unmarked)", "hERG current change (%, negative = inhibition) at 1uM": -3.12}, {"compound": "CC(=O)Nc1ccc(S(=O)(=O)NCC(=O)NNC(=O)c2csc(N3CCOCC3)n2)cc1", "hERG current change (%, negative = inhibition) at 1uM": -0.0046}, {"compound": "Cc1nn(C(=O)c2ccco2)c(C)c1Br", "hERG current change (%, negative = inhibition) at 1uM": 12}, {"compound": "O=S(=O)(c1cccs1)N1CN(Cc2ccc(Cl)cc2)c2nc3ccccc3nc21", "hERG current change (%, negative = inhibition) at 1uM": 9.87}, {"compound": "CC1Cc2ccccc2N1C(=O)Cn1c(=O)cc(O)c2ccccc21", "note": "(centres unmarked)", "hERG current change (%, negative = inhibition) at 1uM": 15.8}, {"compound": "CCc1cccc(CC)c1NC(=O)COC(=O)c1cccc(-c2ccc(OC(C)=O)cc2)c1", "hERG current change (%, negative = inhibition) at 1uM": 6.01}, {"compound": "COc1ccc(Cl)cc1NC(=O)C(OC)c1ccccc1", "note": "(centres unmarked)", "hERG current change (%, negative = inhibition) at 1uM": 7.59}, {"compound": "COC(=O)C1=C(c2ccc(Cl)c(C(F)(F)F)c2)C[C@@H]2CC[C@H]1N2C(=O)NCCNC(C)=O", "hERG current change (%, negative = inhibition) at 1uM": 11}, {"compound": "COc1ccc(CN(C)C(=O)c2ccc(NS(=O)(=O)c3ccc(C)c([N+](=O)[O-])c3)cc2)c(OC)c1OC", "hERG current change (%, negative = inhibition) at 1uM": -9.17}, {"compound": "O=C(Cn1cnc2cc([N+](=O)[O-])ccc2c1=O)N(Cc1ccccc1)C1CCS(=O)(=O)C1", "note": "(centres unmarked)", "hERG current change (%, negative = inhibition) at 1uM": 6.43}, {"compound": "NS(=O)(=O)c1ccc(NC(=O)CSc2n[nH]c(=O)n2C2CC2)cc1", "hERG current change (%, negative = inhibition) at 1uM": 12.1}, {"compound": "COc1cc(/C=C2/C(=O)ON=C2c2ccccc2)ccc1O", "hERG current change (%, negative = inhibition) at 1uM": 7.89}, {"compound": "CC(Sc1nc2ccc(Br)cc2[nH]1)C(=O)O", "note": "(centres unmarked)", "hERG current change (%, negative = inhibition) at 1uM": -11.3}, {"compound": "O=C(NCc1ccco1)C(c1ccccc1F)N(Cc1cccnc1)C(=O)Cn1nnc2ccccc21", "note": "(centres unmarked)", "hERG current change (%, negative = inhibition) at 1uM": -13.2}, {"compound": "C/C(=N\\NC(=O)c1c(Br)cnn1C)c1ccc(NC(=O)c2ccc(F)cc2)cc1", "hERG current change (%, negative = inhibition) at 1uM": 5.71}, {"compound": "COc1cccc(C2c3c(oc4ccccc4c3=O)C(=O)N2Cc2ccco2)c1", "note": "(centres unmarked)", "hERG current change (%, negative = inhibition) at 1uM": 0.412}, {"compound": "Cc1nc2ccc(F)cc2cc1C(=O)NCc1ccco1", "hERG current change (%, negative = inhibition) at 1uM": 6.42}, {"compound": "CCN(CC)S(=O)(=O)c1ccc(S(=O)(=O)N2CCCC(C(=O)NC3CC3)C2)cc1", "note": "(centres unmarked)", "hERG current change (%, negative = inhibition) at 1uM": 11}, {"compound": "COc1ccc(CCNC(=O)c2ccc(SC)cc2OC)cc1", "hERG current change (%, negative = inhibition) at 1uM": 3.79}, {"compound": "CC1CCCCN1S(=O)(=O)c1csc(C(N)=O)c1", "note": "(centres unmarked)", "hERG current change (%, negative = inhibition) at 1uM": 4.46}, {"compound": "CCCCn1c(SCC2CCCCO2)nc2cc(S(N)(=O)=O)ccc21", "note": "(centres unmarked)", "hERG current change (%, negative = inhibition) at 1uM": -9.18}, {"compound": "N#CCCN(C(=O)COC(=O)CNC(=O)c1ccc(-c2ccccc2)cc1)c1ccc(F)cc1", "hERG current change (%, negative = inhibition) at 1uM": 6.76}, {"compound": "CC(C)NC(C)C(=O)C12CC3CC(CC(C3)C1)C2.Cl", "note": "(centres unmarked)", "hERG current change (%, negative = inhibition) at 1uM": 9}]}]}
